Screen size: about 110,000 compounds; about 230 (0.21%) showed an effect of 50% or more. The list shows a part of the results.
Target: DPAP1 (Plasmodium falciparum, UniProt Q8IIJ9)
Assay: primary screen, percent inhibition; read by cleavage of a fluorogenic dipeptide substrate; higher = more effect of the substance
Set-up: species or system P. falciparum D10 trophozoite lysates; single well
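Note: 30 min substrate incubation versus DMSO and 10 µM JCP410 controls.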

Sequence of DPAP1 (Q8IIJ9 whole entry, looked up): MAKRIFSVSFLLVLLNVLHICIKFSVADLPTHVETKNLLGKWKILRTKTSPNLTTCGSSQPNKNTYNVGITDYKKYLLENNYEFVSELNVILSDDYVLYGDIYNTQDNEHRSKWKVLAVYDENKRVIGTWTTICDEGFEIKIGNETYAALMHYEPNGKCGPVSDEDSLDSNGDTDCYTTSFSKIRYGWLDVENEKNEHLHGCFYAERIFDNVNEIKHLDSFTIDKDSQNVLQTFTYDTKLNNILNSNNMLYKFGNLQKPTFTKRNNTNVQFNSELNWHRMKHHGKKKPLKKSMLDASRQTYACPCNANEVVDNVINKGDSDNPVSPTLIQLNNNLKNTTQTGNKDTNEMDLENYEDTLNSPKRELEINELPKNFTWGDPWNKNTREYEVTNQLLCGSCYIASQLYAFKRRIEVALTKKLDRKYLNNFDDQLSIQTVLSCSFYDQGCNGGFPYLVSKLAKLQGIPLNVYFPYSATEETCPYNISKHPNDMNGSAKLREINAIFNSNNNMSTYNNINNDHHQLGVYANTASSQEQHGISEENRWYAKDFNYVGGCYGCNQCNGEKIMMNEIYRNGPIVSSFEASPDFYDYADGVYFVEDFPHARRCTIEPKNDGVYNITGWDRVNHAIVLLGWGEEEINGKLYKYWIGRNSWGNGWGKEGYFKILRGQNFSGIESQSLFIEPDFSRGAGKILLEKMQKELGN

Compared with `CC(=O)Nc1ccc(NC(=O)c2ccc(C)c([N+](=O)[O-])c2)cc1`, `CCOc1ccccc1NC(=O)c1ccc(C)c(C)c1` is lower in “% Inhibition @ 10 uM” value: -2.47% for the first, -6.67% for the second.

Compared with `CS/C(S)=C(/c1nc2ccccc2[nH]1)[n+]1ccccc1`, `Cc1ccccc1-c1cc(C(=O)O)c2c(-c3ccccc3)[nH]nc2n1` is lower in “% Inhibition @ 10 uM” value: 8.5% for the first, 0.244% for the second.

Compared with `COc1ccc(-c2cc3c(nn2)-c2ccccc2C3=O)cc1`, `COc1ccc(C2=CC(c3cc(Br)ccc3F)n3ncnc3N2)cc1` (centres unmarked) is lower in “% Inhibition @ 10 uM” value: 1.24% for the first, -5.19% for the second.

Compared with `COCCCNC(=O)c1ccc(CSCc2ccc(C)cc2)o1`, `CCNC(=O)CCn1nc(-c2ccc(C)cc2)c2ccccc2c1=O` is lower in “% Inhibition @ 10 uM” value: 0.514% for the first, -2.98% for the second.

Compared with `COC(=O)C1=CN(CCc2ccc(OC)cc2)C=C(C(=O)OC)C1c1ccsc1`, `CCCCCn1c(=O)c(C(=O)Nc2ccc(OC)cc2)c(O)c2ccccc21` is higher in “% Inhibition @ 10 uM” value: -5.26% for the first, -3.74% for the second.

Compared with `CCCSCCCNC(=O)CN(C)c1nnc(N2CCCC2=O)s1`, `Cc1nn(CC(=O)NCCCN2CCC(Cc3ccccc3)CC2)c(=O)c2cc3sccc3n12` is higher in “% Inhibition @ 10 uM” value: -1.49% for the first, 6.46% for the second.

Going from `Cc1cccc(NC(=O)C2CC3CCC2C3)n1` (centres unmarked) to `Cc1cccc(NC(=O)c2cccc(Br)c2)n1`, the “% Inhibition @ 10 uM” value rises from -2.66% to 5.14%.

Compared with `Cc1ccc(-c2noc(CN(C(=O)Cc3ccc(Cl)cc3)C(C)C)n2)cc1`, `Cc1ccc(CNC(=O)CN(c2ccccc2Cl)S(=O)(=O)c2ccccc2)cc1` is lower in “% Inhibition @ 10 uM” value: -3.99% for the first, -7.69% for the second.

First: CC(=O)N1CCN(C2CCN(CCc3ccccc3)CC2)CC1
Second: C/C(=C\c1ccccc1)CN1CCC(C(N)=O)CC1
The “% Inhibition @ 10 uM” value of the first is lower: -1.81% for the first, 0.217% for the second.

Going from `Cc1cc(C)c(C)c(S(=O)(=O)NCC(=O)NCCc2ccccc2)c1C` to `O=CNCC(=O)NCCc1ccc(Cl)cc1`, the “% Inhibition @ 10 uM” value falls from 4.42% to -3.12%.

First: O=c1cc(-c2ccccc2)oc2cc(OCc3ccccc3)cc(O)c12
Second: CC(CCN(CCO)Cc1ccccc1)c1ccccc1 (centres unmarked)
The “% Inhibition @ 10 uM” value of the first is higher: 1.48% for the first, -2.03% for the second.

First: CCC1(C(O)(C#CCN2CCCCC2)c2ccccc2)CCCC1 (centres unmarked)
Second: CCCOC(=O)C(c1ccccc1)N1CCCCCC1 (centres unmarked)
The “% Inhibition @ 10 uM” value of the first is lower: -2.15% for the first, 1.57% for the second.

Going from `O=C(ON1C(=O)c2ccccc2C1=O)C1CCCCC1` to `O=C(CCC1CCCCC1)NC1(C(F)(F)F)NC(=O)N(Cc2ccccc2)C1=O` (centres unmarked), the “% Inhibition @ 10 uM” value falls from -2.45% to -3.33%.

First: CC(C)c1ccc(-c2c(NC(C)c3ccccc3)c(=O)c2=O)cc1 (centres unmarked)
Second: CC(C)Cc1ccc(-c2csc(Nc3ccc(Oc4ccccc4)cc3)n2)cc1
The “% Inhibition @ 10 uM” value of the first is higher: 4.62% for the first, -2.2% for the second.

Going from `CCOc1ccccc1-c1nc(-c2ccc3c(c2)OCO3)no1` to `COc1cc(-c2nc3ccccn3c2N)ccc1O`, the “% Inhibition @ 10 uM” value falls from 1.76% to -4.3%.

Compared with `O=CN1CCN(Cc2ccc(C(F)(F)F)cc2)CC1`, `C/C(=C\c1ccccc1)CN1CCCC(O)C1` (centres unmarked) is higher in “% Inhibition @ 10 uM” value: -0.0908% for the first, 0.472% for the second.

Going from `O=C(CN1C(=O)c2cccc3cccc1c23)Nc1ccccc1` to `O=C(Nc1ccccc1F)c1ccccc1C(=O)Nc1ccccc1F`, the “% Inhibition @ 10 uM” value rises from -9.02% to 9.41%.

Compared with `COc1ccc(S(=O)(=O)Nc2c(C)cccc2C)cc1OC`, `COc1ccc(NC(=O)CNS(=O)(=O)c2ccc(Cl)cc2)cc1OC` is lower in “% Inhibition @ 10 uM” value: 2.4% for the first, -3.77% for the second.

First: CC(Oc1ccc(Cl)cc1Cl)C(=O)Nc1ncccn1 (centres unmarked)
Second: O=C(Nc1ccc(Cl)cc1Cl)c1cnccn1
The “% Inhibition @ 10 uM” value of the first is lower: -5.28% for the first, 1.26% for the second.

First: CC(C)C1C(=O)OC2c3ccccc3C(=O)N21 (centres unmarked)
Second: COc1ccccc1/C=C/C1=NC(=C\c2cccs2)/C(=O)O1
The “% Inhibition @ 10 uM” value of the first is lower: 4.01% for the first, 11.9% for the second.

First: N#CC1=C(N)Oc2nc(O)nc(O)c2C1c1cccc([N+](=O)[O-])c1 (centres unmarked)
Second: N#Cc1sc2nc(-c3cccs3)cc(C(F)(F)F)c2c1N
The “% Inhibition @ 10 uM” value of the first is higher: -0.294% for the first, -2.32% for the second.

Going from `CCOC(=O)C1CN1CCC(=O)OC` (centres unmarked) to `CCOC(=O)c1sc(NC(=O)c2ccc(Cc3ccccc3)cc2)nc1C`, the “% Inhibition @ 10 uM” value rises from -5.2% to 6.51%.

First: Cc1ccccc1Cn1c(SCC(=O)NCc2cccs2)nc2c1c(=O)n(C)c(=O)n2C
Second: Cn1c(=O)[nH]c(=O)c2c1nc(N1CCc3ccccc3C1)n2CCSc1ncccn1
The “% Inhibition @ 10 uM” value of the first is higher: 4.57% for the first, 0.758% for the second.

First: COc1ccc(S(=O)(=O)NCCSC(C)(C)C)c(Cl)c1Cl
Second: Cc1nn(C)c(C)c1CN(C)S(=O)(=O)c1ccc(F)cc1
The “% Inhibition @ 10 uM” value of the first is lower: -5.5% for the first, 0.812% for the second.

First: COc1ccc(C2=NN(C(=O)CSc3ncnc4ccccc34)C(c3ccc(OC)cc3)C2)cc1 (centres unmarked)
Second: COc1ccc(-c2oc(=O)n(Cc3cccs3)c2-c2ccc(OC)cc2)cc1
The “% Inhibition @ 10 uM” value of the first is higher: 3.32% for the first, -6.65% for the second.

First: COc1cc(/C=c2\sc3nc(=O)c(C)nn3c2=O)cc(OC)c1OC
Second: CCOc1cccc(NC(=O)c2sc3nc(-c4ccc(OC)c(OC)c4)ccc3c2N)c1
The “% Inhibition @ 10 uM” value of the first is lower: -1.52% for the first, 0.161% for the second.

Compared with `COc1ccc(N(CC(=O)N2CCCCC2)S(=O)(=O)c2ccccc2)cc1OC`, `CCC1CCCCN1S(=O)(=O)c1ccc(C(=O)Nc2nnc(-c3cccc(OC)c3)o2)cc1` (centres unmarked) is higher in “% Inhibition @ 10 uM” value: -6.77% for the first, 7.29% for the second.

First: COc1ccccc1CNC1CCC(c2ccccc2)CC1 (centres unmarked)
Second: CCC(C(Nc1ccccc1)c1ccccc1)[N+](=O)[O-] (centres unmarked)
The “% Inhibition @ 10 uM” value of the first is higher: 0.265% for the first, -4.01% for the second.

Going from `O=C(OCC(O)CNC12CC3CC(CC(C3)C1)C2)C12CC3CC(CC(C3)C1)C2` (centres unmarked) to `Cc1ccc(C)n1-c1nnc(N2CCCC(C(=O)N3CCOCC3)C2)s1` (centres unmarked), the “% Inhibition @ 10 uM” value rises from -12% to 2.65%.

Compared with `O=C1NC(=O)C(=Cc2ccc(SCc3ccc(Cl)cc3)o2)C(=O)N1`, `COc1ccccc1C1=Nc2c(c(=O)[nH]c(=O)n2Cc2ccccc2)C(C(F)(F)F)(C(F)(F)F)N1` is higher in “% Inhibition @ 10 uM” value: -1.7% for the first, 4.94% for the second.

Compared with `COc1ccc(S(=O)(=O)N2CCC(c3nc(O)c4nnn(Cc5ccccc5F)c4n3)CC2)cc1`, `CC1=C(C(=O)Nc2ccccc2C)C(c2ccc(Cl)c(Cl)c2)n2nc(CCCO)nc2N1` (centres unmarked) is lower in “% Inhibition @ 10 uM” value: 1.25% for the first, 0.528% for the second.

First: Cc1ccnc(N2CCN(C(=O)CSc3nc4ccccc4nc3N3CCC(C)CC3)CC2)c1
Second: CC(C)CCNC(=O)C1CCN(c2nn3cc(-c4ccc(F)cc4)nc3s2)CC1
The “% Inhibition @ 10 uM” value of the first is higher: 0.032% for the first, -3.81% for the second.

For `CCCS(=O)(=O)n1nc(-c2ccccc2)cc1N`, the “% Inhibition @ 10 uM” value was 1.15%.

Reference: PMC6919601, “Identification of Plasmodium dipeptidyl aminopeptidase allosteric inhibitors by high throughput screening” (PLoS ONE, 2019)
